Measured values from PubChem BioAssay AID485294 (National Center for Advancing Translational Sciences (NCATS), 2010).
Screen size: about 370,000 compounds; about 150 (0.041%) were called active. Inconclusive means that the source gave no clear call. Such entries were picked first, then a sample of the others. Calls follow the shape of the dose curve; as a rule, active = well fitted inhibition curve with a large enough effect; inconclusive = small, poorly fitted or top-dose-only effect; inactive = flat fitted curve, though single readings scatter. No potency is given beside an inconclusive call; the fits are too rough.

The compounds below were run against Beta-lactamase (Escherichia coli (strain K12)) (UniProt P00811) (assay: qHTS Inhibitors of AmpC Beta-Lactamase (assay with detergent)). Conditions: AmpC hydrolysis of nitrocefin, absorbance 480 nm, 0.01% Triton; activity change, negative = inhibition: at 114 µM (top of the series).
Chain of UniProt P00811 (P00811 whole entry, looked up): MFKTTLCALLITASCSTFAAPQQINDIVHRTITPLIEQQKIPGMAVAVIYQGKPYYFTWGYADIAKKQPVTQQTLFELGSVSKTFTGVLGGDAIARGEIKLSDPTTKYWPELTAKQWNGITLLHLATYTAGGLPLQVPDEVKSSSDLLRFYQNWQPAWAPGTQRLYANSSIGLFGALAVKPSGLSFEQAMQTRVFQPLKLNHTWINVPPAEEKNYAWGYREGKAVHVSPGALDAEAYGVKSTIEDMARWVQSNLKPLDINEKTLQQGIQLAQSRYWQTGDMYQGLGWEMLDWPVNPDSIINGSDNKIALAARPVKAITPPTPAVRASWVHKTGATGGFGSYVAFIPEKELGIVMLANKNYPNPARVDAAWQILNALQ
In short: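 AmpC (5.3 nM in the dispensed reagent) in 20 mM phosphate pH 7.0 with 0.01% (detergent screen) or 0.0001% Triton X-100 was preincubated with compounds for 15 min at room temperature. Nitrocefin was then added from an 800 uM solution, and hydrolysis was followed at 480 nm.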
Also: nearly all actives have a fitted effect of over 25% in size.
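For activity change, negative = inhibition in this document: 0% = no-compound wells and -100% = no-enzyme wells.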
Potency is read from the fitted curve at half-maximal effect; tags tell the direction and shape of the fitted curve.

Row | SMILES | Potency | activity change, negative = inhibition
1 | Cc1cc[n+](CC(=O)Nc2cc(C(F)(F)F)ccc2Cl)cc1 | inconclusive [inhibitor, partial curve] | –
2 | COc1cccc(-c2nn3c(-c4cccc(C)c4)nnc3s2)c1 | inconclusive [inhibitor, partial curve, poor fit] | –
3 | CS(=O)(=O)N(CCc1ccccc1)CC(=O)N1CCc2ccccc2C1 | inconclusive [inhibitor, full curve] | –
4 | O=C1NC(=Nc2ccccc2)S/C1=C\C=C\c1ccco1 | – | inactive: -2.37%
5 | O=C1Nc2ccccc2OC1CC(=O)N1CCN(c2cccc(C(F)(F)F)c2)CC1 (stereo unspecified) | inconclusive [inhibitor, full curve, poor fit] | –
6 | Cc1ccccc1-c1nnn(Cc2ccc(-c3nn[nH]n3)cc2)n1 | inconclusive [inhibitor, full curve] | –
7 | CC1=CC(C)(C)Nc2ccc(OC(=O)c3cccnc3)cc21 | inconclusive [inhibitor, single point] | –
8 | COC(=O)CSc1nnc(-c2ccc(OC)c(OC)c2)o1 | – | inactive: 0%
9 | COc1ccc(CCNc2nc3cc(OC)c(OC)cc3c3nc(-c4ccccc4)nn23)cc1OC | – | inactive: 6.09%
10 | [S-]c1nnc(-c2ccc(Br)cc2)n1-c1ccccc1.[Zn+2] | inconclusive [inhibitor, full curve, poor fit] | –
11 | Cn1c(CCCCCN)nc2ccccc21 | inconclusive [inhibitor, partial curve] | –
12 | C=CCNC(=O)c1ccccc1NC(=O)c1ccc(Cl)c(S(=O)(=O)Nc2cccc(C)c2C)c1 | inconclusive [inhibitor, partial curve] | –
13 | CC1=CC(=O)C=C(C)C1=NOc1ccccc1[N+](=O)[O-] | inconclusive [inhibitor, full curve, poor fit] | –
14 | CCC1COCCS(=O)(=O)N1Cc1ccc(C)cc1 (stereo unspecified) | inconclusive [inhibitor, partial curve, poor fit] | –
15 | Cc1cnc(C(=O)Nc2ccc3c(c2)CCC3)cn1 | inconclusive [inhibitor, full curve, poor fit] | –
16 | O=S(=O)(/N=S1/CC=CCN1S(=O)(=O)c1ccccc1)c1ccccc1 (stereo unspecified) | inconclusive [inhibitor, partial curve] | –
17 | CC(=O)c1ccc(NC(=S)NCc2ccc(Cl)cc2Cl)cc1 | inconclusive [inhibitor, single point] | –
18 | Cc1ccc(N(Cc2ccco2)C(=O)c2cccc(S(=O)(=O)N(C)C)c2)cc1 | inconclusive [inhibitor, single point] | –
19 | COc1ccc(NC(=O)C2CCC(CNc3c(N4CCC(C)CC4)c(=O)c3=O)CC2)cc1OC (stereo unspecified) | inconclusive [inhibitor, partial curve, poor fit] | –
20 | CCN1CCN(c2cc(N3CCCC3)c(F)cc2[N+](=O)[O-])CC1 | inconclusive [inhibitor, full curve] | –
21 | CCOC(=O)c1c(NC(=O)CSc2nnc(CNc3ccc(F)cc3)o2)sc(C)c1C | inconclusive [inhibitor, partial curve] | –
22 | COc1ccc(NC(=O)COC(=O)c2c3c(nc4ccccc24)CCCC3)cc1 | inconclusive [inhibitor, partial curve, poor fit] | –

Row | SMILES | Potency | activity change, negative = inhibition
23 | CCNc1c(NS(=O)(=O)c2ccc(OC)cc2)c(=O)oc2ccccc12 | inconclusive [inhibitor, single point] | –
24 | CCOC(=O)C1CCN(C(c2ccc(C)cc2)c2c(O)cc(C)n(CCOC)c2=O)CC1 (stereo unspecified) | – | inactive: 17%
25 | CCOC(=O)Cn1nnc(-c2ccc(SC)cc2)n1 | inconclusive [inhibitor, single point] | –
26 | COc1ccc(N2CCN(C(=O)NCc3ccc(OC)c(OC)c3)CC2)cc1 | inconclusive [inhibitor, full curve, poor fit] | –
27 | CCO/C([O-])=N/c1c[n+](N2CCOCC2)no1 | inconclusive [inhibitor, full curve, poor fit] | –
28 | COc1cc(C(=O)NC(=S)Nc2ccc([N+](=O)[O-])cc2)cc(OC)c1OC | – | inactive: -4.96%
29 | Cn1c(C2CC(=O)N(Cc3ccccc3)C2)nc2ccccc21 (stereo unspecified) | inconclusive [inhibitor, full curve] | –
30 | COc1ccccc1-n1ccnc(SCC(=O)NC2CCCC2)c1=O | inconclusive [inhibitor, partial curve, poor fit] | –
31 | COC(=O)Cn1c(=NC(=O)C(C)C)sc2c(C)cc(C)cc21 | inconclusive [inhibitor, full curve, poor fit] | –
32 | N#CC1=C(N)NC(SCc2ccccc2)=C(C#N)C12CCCC2 | inconclusive [inhibitor, partial curve, poor fit] | –
33 | COc1ccc(N2CCN(C(c3nnnn3C3CCCC3)C(C)C)CC2)cc1 (stereo unspecified) | – | inactive: -3.35%
34 | CCn1c(CNc2ccc(F)cc2)nnc1SCC(=O)Nc1ccc(OC)cc1 | inconclusive [inhibitor, full curve, poor fit] | –
35 | CCn1c([N+](=O)[O-])nc2c1c(=O)[nH]c(=O)n2C | – | inactive: 3.18%
36 | Cc1c(C(c2ccc([N+](=O)[O-])cc2)c2c(C)n(C)n(-c3ccccc3)c2=O)c(=O)n(-c2ccccc2)n1C | inconclusive [inhibitor, partial curve] | –
37 | NNC(=O)c1nc(-c2ccccc2)cc(-c2ccccc2)n1 | inconclusive [inhibitor, full curve, poor fit] | –
38 | O=C(Cn1cccc1)Nc1ccc(F)cc1F | inconclusive [inhibitor, partial curve, poor fit] | –
39 | CCN(CC)S(=O)(=O)c1ccc(Oc2ccc(S(=O)(=O)N(CC)CC)cc2)cc1 | – | inactive: -6.72%
40 | COc1ccc(C2CC(c3ccco3)n3ncnc3N2)cc1 (stereo unspecified) | inconclusive [inhibitor, full curve, poor fit] | –
41 | CC(=O)N1CCc2cc(S(=O)(=O)CCC(=O)N(C)c3cc(C)ccc3C)ccc21 | inconclusive [inhibitor, full curve, poor fit] | –
42 | CN(C)CCn1c2c(c(SCC(=O)NCc3ccccc3)nc1=O)CCCC2 | inconclusive [inhibitor, partial curve, poor fit] | –
43 | COc1cccc(CCNS(=O)(=O)CCNC(=O)c2cccc(OC)c2)c1 | – | inactive: -9.98%
44 | CN(CC1CCN(CCc2cccc(C(F)(F)F)c2)CC1)C(=O)c1ccc(F)cc1F | – | inactive: -1.82%

Row | SMILES | Potency | activity change, negative = inhibition
45 | COCCCn1c(-c2ccc(S(=O)(=O)N3CCOCC3)cc2)csc1=Nc1ccccc1 | inactive | –
46 | CC1CC1C(=O)Nc1ccc(-c2ccccc2)cc1 (stereo unspecified) | – | inactive: -3.83%
47 | NC(=O)CNCCC(c1ccccc1)c1ccccc1 | inconclusive [inhibitor, partial curve, poor fit] | –
48 | CCNC(=O)c1cc2c(=O)n3cccc(C)c3nc2n(Cc2ccc(C)cc2)c1=N | inconclusive [inhibitor, partial curve, poor fit] | –
49 | CCOc1ccc(OCCOCCN2CCCC2)cc1 | – | inactive: -4.31%
50 | CC(OC(=O)CN1C(=O)c2ccccc2C1=O)C(=O)NC1CCCCC1 (stereo unspecified) | – | inactive: 2.29%
51 | CCCCCCc1cc2cc(C(=O)Nc3ccccc3)c(=O)oc2cc1O | inconclusive [inhibitor, full curve, poor fit] | –
52 | COc1ccc(CNC(=O)c2cc3c(s2)CS(=O)C3)cc1 (stereo unspecified) | inconclusive [inhibitor, partial curve, poor fit] | –
53 | CC1=C(C(=O)O)N2C(=O)[C@@H](NC(=O)CCCC(=O)O)[C@H]2SC1 | – | inactive: -3.18%
54 | CCOc1ccccc1OCCCC(=O)N(C)CC(=O)Nc1cc(C)ccc1C | inconclusive [inhibitor, full curve, poor fit] | –
55 | Cc1cc(OC(C)C(=O)N[C@H](C(=O)O)c2ccccc2)c2c3c(c(=O)oc2c1)CCC3 (stereo partly specified) | inconclusive [inhibitor, partial curve] | –
56 | CC1CN(Cc2nc3c(c(=O)n(C)c(=O)n3C)n2Cc2cccc(Cl)c2)CC(C)O1 (stereo unspecified) | inconclusive [inhibitor, full curve] | –
57 | O=C(CSCSCC(=O)Nc1ccc2c(c1)OCO2)Nc1ccc2c(c1)OCO2 | inconclusive [inhibitor, full curve, poor fit] | –
58 | COCn1c(COc2ccccc2)nc2ccccc21 | inconclusive [inhibitor, partial curve, poor fit] | –
59 | COc1ccc(OC)c(NC(=O)Nc2c(C)n(C)n(-c3ccccc3)c2=O)c1 | – | inactive: 2.12%
60 | COc1ccc(OCCOC(=O)Nc2ccccc2)cc1 | inconclusive [inhibitor, full curve, poor fit] | –
61 | Cc1csc2nc(CNC(=O)C3CCCCC3)cn12 | inconclusive [inhibitor, full curve] | –
62 | CC(C)(C)c1ccc(O)c(N=Cc2c(O)ccc3ccccc23)c1 | inconclusive [inhibitor, single point] | –
63 | COc1ccc(NC(=O)CCCn2c(=S)[nH]c3ccccc3c2=O)cc1 | – | inactive: -18.7%
64 | O=C1NN(c2ccccc2)C(=O)/C1=C/c1ccc(Sc2cccc3ccccc23)o1 | inconclusive [inhibitor, full curve, poor fit] | –
65 | O=C(O)c1nn(CCOc2ccc(Cl)cc2Cl)c(=O)c2ccccc12 | – | inactive: -11.5%
66 | O=C(NN=C1CCCC1)c1cccc(O)c1 | inconclusive [inhibitor, partial curve, poor fit] | –
